The values that follow come from publication PMC10726135.

The list shows a part of the results. At the low end of the ranking the order means little. Measured with an extract: partners may take part in the binding.

The target in this test is T1, HNF4alpha2 (COS-7 nuclear extract) (UniProt P41235).
T1 sequence: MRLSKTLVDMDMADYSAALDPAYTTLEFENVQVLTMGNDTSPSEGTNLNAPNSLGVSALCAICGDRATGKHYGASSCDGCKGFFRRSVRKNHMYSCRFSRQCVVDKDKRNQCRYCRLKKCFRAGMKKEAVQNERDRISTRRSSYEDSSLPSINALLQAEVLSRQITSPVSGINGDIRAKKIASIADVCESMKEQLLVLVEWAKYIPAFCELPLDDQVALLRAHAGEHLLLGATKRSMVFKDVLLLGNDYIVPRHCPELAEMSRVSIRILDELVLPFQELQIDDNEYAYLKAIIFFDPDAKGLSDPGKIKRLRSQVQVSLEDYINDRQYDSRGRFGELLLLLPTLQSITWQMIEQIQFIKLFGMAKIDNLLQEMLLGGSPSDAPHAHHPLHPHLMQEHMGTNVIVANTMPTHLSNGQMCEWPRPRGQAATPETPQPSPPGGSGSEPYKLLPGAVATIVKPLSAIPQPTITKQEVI
As to the kind of experiment: protein-binding microarray. Particulars: COS-7 nuclear extract on double-stranded Agilent 4x180k PBM; binding buffer, salt, pH and temperature not given; high values mean tight binding; double strand, one strand shown; sequences stand for … in …GCCTAGGGAGATTAGAGTATCGGTCGA
Take TGTTGTTGATTTAACATTTGTGATCTGGCA: the binding signal (log2 normalized intensity) was found to be 1.64. As to CCTTGCAATGCTGGAGGGACTGTGATGAAG, the binding signal (log2 normalized intensity) was found to be 0.699. Take CGATAATAGAGATTGCTTAATGCAAACTCC: the binding signal (log2 normalized intensity) was -0.71. With TGGACAGTGTCTGACTAGAGTGGAGTGAAG the figure was -1.36. For the sequence TTCCTGACCCCTCCTCCCCCCGCCGCATCT, the binding signal (log2 normalized intensity) worked out at 5.91. CTAAGATCCTAGGAGAGCCAAATCTTAAGG: the binding signal (log2 normalized intensity) is -1.04. For CACAACAGAAAGCAAGAGCACAAGAACAAA, the binding signal (log2 normalized intensity) was -1.18.

Take GCAGGGAGGACACAGTGTTATTTGCTGAGG: the binding signal (log2 normalized intensity) is -0.84. Next, CCTCAGAACCATTTGTGAGGATGGGCAGTC: 0.734; TAGGGAAAAGATAAGGCGTAGTTCAGAGAA: -1.18. With CAGAGGCCAGAAAAGCAAACCGAGATCAAG the figure was -1.24; with CAAGATTCCTTGAGCATTCCAAAAAGCTTT, -0.357. Next, AAGCGTGCACCCCAGGTACGGAGGACAGCC: -1.01; CTAAATGGCAATGGCTGCAGCTCTTCCACG: -1.18. In the case of ATTGAGATGGTAACCACACCAAGGGGCCCC, the binding signal (log2 normalized intensity) is -1.06. With GGTGGACTTTGGCCGTGAAGCCGTCCTGTC the figure was 5.03; with GCCACTTTCACAAATCATTACTATCTGCTG, -1.16. Next, AATGGCAACATGTGGGCAAATAGGATTAGG: -0.651. Take CTTTTGTGTGTTTACATAACCTGCCCAAAG: the binding signal (log2 normalized intensity) turned out to be 1.05.

TTTTGTGTGCTAGATACTGGAGATATGTTG: the binding signal (log2 normalized intensity) amounted to 1.48. CTCAATTATAACTCATGTTCAAACAGTGGT: the binding signal (log2 normalized intensity) amounted to 1.53. On to CAGAGGACAGGCTAATGAGATAATGCTGGT, for which the binding signal (log2 normalized intensity) is -1.16. In the case of TAAAACGTGGTTCAGGGAGCGAATAAATAC, the binding signal (log2 normalized intensity) was -1.19. With CAACTGGAAGTCCAGCATTCTTTTCCCCAT, the binding signal (log2 normalized intensity) was determined as 2.23. Take GCCCTTTATCTCCTCTCTTCTCACTTTTTA: the binding signal (log2 normalized intensity) was 1.82. With AAGGCAGAGGAAAGCCCTAGCTGACTGCGT the figure was -0.911; with CTTCAGGTCAAGAGGGCCTCTGCTTGTCTT, 0.43.

CTACTACTTGACCTTTGAAACATATCCAGA: the binding signal (log2 normalized intensity) was determined as 5.48. Next, TCACGTGGCCCTGGCATTTGGCTCAAAGGC: -1.18.

With TCACTGGGAGGGTGGGTTATCAGTAAGAGC, the binding signal (log2 normalized intensity) stood at 0.687. Next, TGCCTGAGATTCCTTCAAAGATTGTGAGAC: 1.15; ATTTTTAGGCTTGTTTATTCAGAGTTAGCT: -1. Next, TATCCAGGCCACGCTGCTAATCCTACTTTA: -1.04; AAACCTTATCTATTTGCTCCCAATTTCTAC: 1.08. With CTTCTTGTACCTCTGGTGATTACCAGTTAT the figure was 1.41; with AGAAGCTTGGTATGTCTGATGAATAGAAAG, 0.62. Consider AATGAGAATGGCCAGAGTTCCTGTGCAAGC, for which the binding signal (log2 normalized intensity) was -1.12. With ATGTCAACATCAGGGTGCCAGCAGGTGGTC the figure was 1.52. Next, CCTGTTTTACAGGACATAGTCCTCTGCATA: 1.01; TTGTTATTTATTGGCCAGTAGCTCTGAGTT: 1.24. On to GCCCTGCTCAGGGAATGTGGGTCCACATTC, for which the binding signal (log2 normalized intensity) worked out at 2.46. Next, AGTAACCTGACCCCCAGTGGAATGTGCCCT: 3.87. With GGCATGAGGTTCTTGTAAGGTTCTTGTATC the figure was 1.69; with GACACGGGCAGGTGAGAGGGCTCTGTCTGC, -1.11. With ATTCATTCACCTTTCGCCCTTTGTCCTATG the figure was 5.24; with CCTTTGTGTGAATCGACCTTTAGCACCGTA, 6.52. In the case of CACCATTAGACTCTGCCCTCCTTAAGACCT, the binding signal (log2 normalized intensity) was determined as 1.81. With GAAAGTACAGTGATGTTTGTCAAATGCTTC the figure was 0.376. Turning to ATTCTGTACTTCAACCAGGTTCTCTTTACT, the binding signal (log2 normalized intensity) is -0.339. With ACCTGCCTCTCTCTCATGTCTGTACTGGGA the figure was 1.81; with TATTATATTGTGGGTTCTTGCCCTTTGGTC, 6.21.

In the case of AAACGCTCCCAATGGCTCCACCAGTCAGTC, the binding signal (log2 normalized intensity) was -1.13. Next, GGATAACCTTCCAGACAGAGAGGTCAGCAA: 0.18; TAGAGCAGCAGTAGGCTCTCGGGCCAGCTG: -0.976. Next, GAGAATGCTAGACAAGGGAATTACTCTTCT: -1.06. For ATCCTGCAGTTCCTGATCTTTGACCTGGAG, the binding signal (log2 normalized intensity) is 5.61. Next, CTTGTAAGCCACAGTACAAAGGTGAGCTTT: 3.57. Next, GTTTGTCTTACTGTGTTGTCGTATTTACTC: 2.15. On to TGGGACAATGAAGCCTAAATGATAAGGGTT, for which the binding signal (log2 normalized intensity) is -0.00453. Next, GCATTGCCGTTCAGGGCCACGGGAAAACCT: -0.969; ACTAGCAGATTCTGTGTGGTAAAAGCACTG: 0.313.

For ATCGCCTGAATGACCACATGCCCTCAGTAC, the binding signal (log2 normalized intensity) stood at 1.88. Next, CTATAGTTTCTGTTTTGATCTTAAGATGAT: 1.81; ACAGACAGACATTCAGAAACTGTCACTTAA: -1.13. Consider TTTACATAACCTGCCCAAAGTGGGGCTGCT, for which the binding signal (log2 normalized intensity) is -1.02. Next, GCGGGTGCAGCTTCCACCTGCAAGGAAATA: -1.03; TGTGGGAGGGAAGGAGCCTAACTTTGATAG: -1.11. With TCACCTTTGCCCTGTCAGTCTCTCAATGAT, the binding signal (log2 normalized intensity) amounted to 3.36.

Take TCAGCACTGAGAGATTACATTTGACTGAGG: the binding signal (log2 normalized intensity) is -0.895. Consider CCGTGCCCCCTTTTGCTTTCCGTTAGGCTA, for which the binding signal (log2 normalized intensity) amounted to 1.63.

As to GCACCAATGATCAAAGAGACACAATCCCTA, the binding signal (log2 normalized intensity) is -1.12. Take AAGTGTCTTGGAGAGAAAAAATCAGAGAGC: the binding signal (log2 normalized intensity) is -1.03.
